Data taken from PubChem BioAssay AID588342 (National Center for Advancing Translational Sciences (NCATS), 2011).
About 25,000 (6.9%) of roughly 360,000 compounds were called active. The shares of active, inactive and inconclusive entries below differ from those in the screen. Calls come from the whole dose curve; as a rule, active = well fitted inhibition curve with a large enough effect; inconclusive = small, poorly fitted or top-dose-only effect; inactive = flat fitted curve, though single readings scatter. Potencies of inconclusive entries are doubtful fits and often do not repeat.

biological target: Luciferin 4-monooxygenase (Photinus pyralis) (UniProt P08659); test: qHTS profiling assay for firefly luciferase inhibitor/activator using purifed enzyme and Km concentrations of substrates (counterscreen for miR-21 project); conditions: purified FLuc, luminescence inhibition; series mostly up to 57.5 µM; note: nearly all actives have a fitted effect of over 55% in size
Outline: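 Purified P. pyralis luciferase, 10 nM final, with Km-level 10 uM D-luciferin and 10 uM ATP in 50 mM Tris acetate pH 7.5, 10 mM Mg acetate, 0.01% Tween-20, 0.05% BSA; 6-point qHTS titration about 60 µM downward; luminescence read.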
Potency is the fitted concentration of half-maximal effect; tags give direction and shape of the fitted curve.

UniProt P08659, sequence (P08659 whole entry, looked up): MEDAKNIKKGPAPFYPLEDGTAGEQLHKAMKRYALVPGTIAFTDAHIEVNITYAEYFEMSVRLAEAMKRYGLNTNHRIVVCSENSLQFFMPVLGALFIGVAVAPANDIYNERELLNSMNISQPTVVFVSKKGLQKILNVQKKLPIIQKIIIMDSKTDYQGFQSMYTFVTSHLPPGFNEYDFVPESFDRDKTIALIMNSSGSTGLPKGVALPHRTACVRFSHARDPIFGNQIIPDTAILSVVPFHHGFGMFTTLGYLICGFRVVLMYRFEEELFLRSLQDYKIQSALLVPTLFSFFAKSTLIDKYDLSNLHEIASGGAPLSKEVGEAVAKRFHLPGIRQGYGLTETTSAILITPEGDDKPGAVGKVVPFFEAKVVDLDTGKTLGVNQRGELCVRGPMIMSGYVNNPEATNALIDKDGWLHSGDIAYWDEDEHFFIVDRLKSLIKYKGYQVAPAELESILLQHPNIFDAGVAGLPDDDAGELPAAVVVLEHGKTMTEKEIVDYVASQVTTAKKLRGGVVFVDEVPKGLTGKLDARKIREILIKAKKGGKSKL

SMILES	Potency
O=C(Oc1ccc(Cl)cc1)c1ccc(N2CCOCC2)c([N+](=O)[O-])c1	inconclusive: 37.9 µM [inhibitor, single point]
O=C(N/N=C/c1cn(-c2ccccc2)nc1-c1cccnc1)c1cccnc1	inconclusive: 23.9 µM [inhibitor, partial curve, poor fit]
Cc1cc(C)c2c(N)c(C(=O)N3CCc4ccccc4C3)sc2n1	inconclusive: 21.3 µM [inhibitor, single point]
Cc1ccc(C2C3=C(CC(C)(C)CC3=O)N=C3c4ccccc4C(=O)C32)cc1 (stereo not given)	inactive
CS(=O)(=O)N(CC(=O)Nc1ccc2c(c1)OCO2)c1ccc(Cl)cc1	inconclusive: 13.5 µM [inhibitor, partial curve, poor fit]
COc1ccc(Oc2cc(C)c3ccccc3n2)cc1	inconclusive: 37.9 µM [inhibitor, partial curve, poor fit]
Cc1cc(Cl)ccc1-n1c(CCC(=O)O)ccc1-c1cccs1	inconclusive: 21.3 µM [inhibitor, partial curve]
CN(C)c1ccc(-c2nnn(CC(=O)Nc3ccccc3N3CCOCC3)n2)cc1	active: 26.9 µM
COC(=O)COc1ccc(-c2nnc(Nc3ccc(O)cc3)c3ccccc23)cc1	inconclusive: 26.9 µM [inhibitor, partial curve, poor fit]
Cn1c(=O)c2c(nc(Sc3ncccn3)n2Cc2ccccc2Cl)n(C)c1=O	inactive
COc1cccc(-c2cc(CC3(O)CCN(CCCc4ccccc4)CC3)on2)c1	inactive
COc1ccc(C(=O)ON=C2c3ccccc3-c3ccccc32)cc1OC	inconclusive: 2.39 µM [inhibitor, full curve]
Cc1ccc(C(=O)NCCSC(C)(C)C)cc1	inconclusive: 3.38 µM [inhibitor, partial curve, poor fit]
O=C(Nc1cccc(C(F)(F)F)c1)C1CCN(S(=O)(=O)c2cccnc2)CC1	inactive
O=C(O)CC1c2ccccc2CCN1C(=O)Nc1cc(Cl)ccc1Cl (stereo not given)	inconclusive: 30.1 µM [inhibitor, single point]
Cc1cc(N2CCN(C(=O)c3ccco3)CC2)n2ncnc2n1	inactive
CC(=O)c1cccc(NC(=O)CCCSc2ccccc2)c1	inconclusive: 30.1 µM [inhibitor, partial curve, poor fit]
CCn1cc2c(n1)-c1c(oc(C(=O)Nc3ccc(Br)cc3F)c1C)CC2	inactive
Cc1cc(C)c2nc(SCC(=O)N3CC(=O)Nc4ccccc43)c(C#N)cc2c1	active: 12 µM
O=C(N/N=C/c1ccc(Cl)cc1Cl)Nc1ccccc1	inconclusive: 4.26 µM [inhibitor, partial curve, poor fit]
Cc1cc(C)nc(NC(=O)Nc2ccccc2C(F)(F)F)n1	inconclusive: 15.1 µM [inhibitor, partial curve]
Cc1cc(NC(=O)c2nn(C)c(C)c2Br)no1	inconclusive: 21.3 µM [inhibitor, single point]
CN(C)CC(CCC(CN(C)C)C(=O)c1ccccc1)C(=O)c1ccccc1 (stereo not given)	inactive
O=c1cc(CSc2nnc(-c3cccs3)n2Cc2ccccc2)nc2sc3ccccc3n12	inactive
O=C(O)/C=C/c1ccc2c(c1)OCCO2	inconclusive: 26.9 µM [inhibitor, single point]

SMILES	Potency
CC1Cn2c(nnc2-c2cccc(Cl)c2)S1 (stereo not given)	inactive
COc1ccc(-c2nnc(-c3cccnc3)o2)cc1	inconclusive: 16.9 µM [inhibitor, partial curve]
c1ccc(Cn2c(-c3cncs3)nc3ccccc32)cc1	inconclusive: 21.3 µM [inhibitor, single point]
COc1ccc(-c2cc(C)no2)cc1S(=O)(=O)NCCCN1CCN(c2ccccc2)CC1	inactive
Cc1c(C(=O)Nc2ccccc2)sc2nc(-c3ccccc3)cn12	inconclusive: 2.69 µM [inhibitor, partial curve]
Cc1ccc2c(CN3CCC(C)CC3)cc(=O)oc2c1C	active: 16.9 µM
CCc1ccc(-c2nc(CS(=O)CC(=O)NCCc3ccc(C)cc3)c(C)o2)cc1 (stereo not given)	inconclusive: 37.9 µM [inhibitor, partial curve, poor fit]
COCc1cc(=O)n2[nH]c(-c3ccccc3)cc2n1	active: 19 µM
COc1cc(CNC(=O)c2cc(C(=O)NCc3cc(OC)cc(OC)c3)n(C)n2)cc(OC)c1	inactive
CCOC(=O)c1cc2c(nc1N)CC(C)(CC)OC2 (stereo not given)	inconclusive: 16.9 µM [inhibitor, partial curve]
CC(=O)c1cccc(NC(=O)NC2CCCCC2)c1	inconclusive: 19 µM [inhibitor, partial curve]
CN(Cc1cn(-c2ccccc2)nc1-c1ccc(Cl)cc1)C(=O)CCC(=O)O	active: 10.7 µM
COCC(C)n1c(SCc2ccc(OC)c(F)c2)nc2ccccc2c1=O (stereo not given)	inactive
CC1CCN(C2=NC(=O)/C(=C/c3ccc(O)cc3)S2)CC1	active: 10.7 µM
COc1ccc2ccccc2c1C1CC(=O)N2CN(Cc3ccco3)CSC2=C1C#N (stereo not given)	inconclusive: 30.1 µM [inhibitor, partial curve, poor fit]
Cc1ccc(-c2ccc(SCC(=O)NC3CCCC3)nn2)cc1	inconclusive: 2.69 µM [inhibitor, full curve]
FC(F)(F)c1cccc(N2CCN(c3ncnc4c3nc3n4CCCC3)CC2)c1	inactive
CCN1CCN(Cc2c(O)ccc3oc(C)c(C(=O)Nc4cccc(Cl)c4C)c23)CC1	inactive
CN(C)c1ccc(C(=O)OCC(=O)c2cccs2)cc1	active: 3.38 µM
CCN1CCN(C(=O)CN2C(=O)c3ccccc3S2(=O)=O)CC1	inconclusive: 23.9 µM [inhibitor, single point]
O=C(CCNc1cccc(Cl)c1)c1ccco1	inactive
CCOC(=O)c1c(C)[nH]c2c1cc(O)c1ccccc12	inconclusive: 15.1 µM [inhibitor, partial curve, poor fit]
O=C(OCC(=O)N1CCc2ccccc2C1)c1cc(=O)[nH]c2ccccc12	inconclusive: 26.9 µM [inhibitor, single point]
O=[N+]([O-])c1ccc(O)c(Nc2ncnc3ccccc23)c1	active: 0.536 µM
Cc1ccc(-c2nn(-c3cccc(F)c3)cc2CNCc2cccnc2)o1	active: 19 µM

SMILES	Potency
Cc1cc(OC(=O)c2ccc(Cl)cc2)cc(=O)n1C	inconclusive: 16.9 µM [inhibitor, partial curve]
COc1ccc2nc(C)cc(C(=O)O)c2c1	inactive
O=C(Nc1ccccc1)c1cccc(N2CCCC2=O)c1	inconclusive: 21.3 µM [inhibitor, partial curve, poor fit]
O=C(NCc1ccccc1)c1ccc(NC(=O)C2CCCO2)cc1 (stereo not given)	inconclusive: 37.9 µM [inhibitor, partial curve, poor fit]
CCOc1ccc(-c2cc(NC(=O)c3ccccc3)c(C(=O)OC)s2)cc1	inactive
COc1ccccc1CCNC(=O)c1cccn1-c1nnc(N2CCCC2)s1	inactive
COc1ccccc1OCCNC(=O)c1ccc(C)o1	inactive
COc1cccc(NC(=O)NCc2ccc(F)cc2)c1	inconclusive: 26.9 µM [inhibitor, single point]
CC(C)(C)c1ccc(C(=O)NCCNC(=O)c2ccco2)cc1	inconclusive: 21.3 µM [inhibitor, partial curve, poor fit]
Cc1ccc(NC(=O)c2cc(C)no2)cc1	inconclusive: 26.9 µM [inhibitor, partial curve]
CCN(CC(=O)Nc1ccc(NC(C)=O)cc1)C(=O)c1ccc(N2CCCC2)c([N+](=O)[O-])c1	inconclusive: 26.9 µM [inhibitor, partial curve]
Clc1ccc2nc(-c3ccc(Cl)nc3)[nH]c2c1	active: 12 µM
O=C(Nc1ccccc1O)C(c1ccccc1)c1ccccc1	inactive
COc1ccc(OC)c(NC(=O)NC2CCCCCCC2)c1	inconclusive: 9.53 µM [inhibitor, partial curve, poor fit]
COc1ccc(C(=O)COc2ccc3c(C)cc(=O)oc3c2)cc1	inconclusive: 37.9 µM [inhibitor, partial curve, poor fit]
Cc1ccc(NC(=O)CCS(=O)(=O)c2cccc3nonc23)cc1	inactive
O=C(O)Cc1ccc2oc(-c3cccnc3)nc2c1	inconclusive: 23.9 µM [inhibitor, partial curve]
COCC1CCCN(Cc2nc(-c3ccc4c(c3)OCO4)no2)C1 (stereo not given)	inconclusive: 26.9 µM [inhibitor, single point]
Cc1ccc(SCc2cn3cccnc3n2)cc1	inconclusive: 21.3 µM [inhibitor, single point]
COc1cccc(C(=O)/C=C/Nc2ccc(S(=O)(=O)Nc3nc(C)cc(C)n3)cc2)c1	inconclusive: 37.9 µM [inhibitor, single point]
COc1ccccc1/C=N/NC1=NCCCCC1	inconclusive: 33.8 µM [inhibitor, partial curve, poor fit]
O=C(NCCc1ccc(Cl)cc1)C1CCN(Cc2cc3ccccc3n2Cc2ccccc2)CC1	inactive
CNC(=O)C1CC(=O)N(c2ccc(OCC(=O)N3CCCC3)cc2)C1 (stereo not given)	inactive
O=C(CSc1nc2c([nH]c3ccccc32)c(=O)n1-c1ccccc1)Nc1ccc2c(c1)OCO2	inactive
Cc1ccc(NC(=O)NC(=S)NC(=O)c2ccccc2)cc1	inconclusive: 6.75 µM [inhibitor, partial curve]
